From the supplement of paper PMC10126150
Values marked as one replicate rest on one cluster of the flow cell; about a third of the high ones do not repeat.

Each sequence was assayed on ATP (assay: switch fluorescence ratio, 500 uM ATP over buffer (Cy3 cluster intensity, sum of 5 cycles each) (fold (ratio)); higher = stronger signal-on switching upon ATP binding; sequences stand for … in TCGTCGGCAGCGTCAGATGTGTATAAGAGACAGTTTTTTTTTTTTTTTTTTTTTTTTT…TC). Conditions: aptamer strand: ATP DNA aptamer (quencher-CACCTGGGGGAGTATTGCGGAGGAAGG + anchor), 100 nM annealed; ATP concentration: 500 uM; one replicate.
How it was run: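 Exposure to 500 uM ATP lasted 15 min at 22 °C before imaging, and a selection-buffer image was taken beforehand, for Cy3-labelled switching-strand clusters on a modified Illumina MiSeq flow-cell annealed to 100 nM quencher-labelled ATP aptamer. Five buffer/ATP cycles were run with NaOH stripping and re-annealing between them. The fluorescence ratio per cluster is summed target-cycle over summed buffer-cycle Cy3 intensity, averaged per switch-domain sequence. Clusters outside 100-1000 RFU were excluded.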
ACTTATACCC showed a switch fluorescence ratio of 1.16. ACTTATAGT gave a switch fluorescence ratio of 1.04. With ACTTCCGAGG the switch fluorescence ratio was 4.53. Sequence ACTTGACGT has a switch fluorescence ratio of 1.11. ACTTGAGTAT was tested, and the switch fluorescence ratio was 0.975. In the case of ACTTGCTTCT, the switch fluorescence ratio is reported as 0.975. ACTTGGACTT showed a switch fluorescence ratio of 1.08. Sequence ACTTGGCTCT has a switch fluorescence ratio of 1.05. Work on ACTTGTAGCG yielded a switch fluorescence ratio of 0.988. ACTTGTATTA was tested, and the switch fluorescence ratio was 0.969. ACTTGTGATG showed a switch fluorescence ratio of 0.981. Sequence ACTTGTGTCT has a switch fluorescence ratio of 1.02. ACTTGTTACC showed a switch fluorescence ratio of 1.02. ACTTGTTCGG gave a switch fluorescence ratio of 1. ACTTTATAAT gave a switch fluorescence ratio of 1.04. Sequence ACTTTCAACC has a switch fluorescence ratio of 1.15. ACTTTCCTGC showed a switch fluorescence ratio of 1.33. ACTTTCCTGT showed a switch fluorescence ratio of 0.991. Sequence ACTTTCGACT has a switch fluorescence ratio of 1.13. In the case of ACTTTCTGTT, the switch fluorescence ratio is reported as 0.982. ACTTTGAGGT was tested, and the switch fluorescence ratio was 0.992. Sequence ACTTTTATTT has a switch fluorescence ratio of 0.961. Sequence ACTTTTCAAA has a switch fluorescence ratio of 0.997. With ACTTTTTAAA the switch fluorescence ratio was 1.03. ACTTTTTCGA showed a switch fluorescence ratio of 0.974. Sequence AGAAAAGAGA has a switch fluorescence ratio of 1.02. Work on AGAAAATCGC yielded a switch fluorescence ratio of 1.05. AGAAACTCGG gave a switch fluorescence ratio of 0.988. For AGAAAGCGTA, the switch fluorescence ratio was 1.04. AGAAAGTTGG gave a switch fluorescence ratio of 1.01. For AGAAATATTC, the switch fluorescence ratio was 0.997. For AGAAATCTT, the switch fluorescence ratio was 1.03. AGAACACGCT showed a switch fluorescence ratio of 0.978. For AGAACCAGAC, the switch fluorescence ratio was 1.72. In the case of AGAACCAGTT, the switch fluorescence ratio is reported as 0.983. In the case of AGAACCGAGT, the switch fluorescence ratio is reported as 1.02. With AGAACTGGAT the switch fluorescence ratio was 1.18. AGAACTGGGA gave a switch fluorescence ratio of 1.01. Sequence AGAAGAAAAC has a switch fluorescence ratio of 0.906. Work on AGAAGAAGAT yielded a switch fluorescence ratio of 1.03. With AGAAGATAAT the switch fluorescence ratio was 1.04. In the case of AGAAGCAACA, the switch fluorescence ratio is reported as 1.16. With AGAAGCATAT the switch fluorescence ratio was 1.1. For AGAAGCATTT, the switch fluorescence ratio was 1. Sequence AGAAGCGACG has a switch fluorescence ratio of 0.952. With AGAAGCTTTT the switch fluorescence ratio was 0.96. AGAAGGCATG showed a switch fluorescence ratio of 0.99. AGAAGGCCAT showed a switch fluorescence ratio of 1.07. AGAAGTAGAC showed a switch fluorescence ratio of 0.993. Sequence AGAAGTAGCG has a switch fluorescence ratio of 1.01. With AGAAGTCTGT the switch fluorescence ratio was 0.968. AGAATAGGTT showed a switch fluorescence ratio of 0.985. Work on AGAATATAAA yielded a switch fluorescence ratio of 1.01. Sequence AGAATCGAGA has a switch fluorescence ratio of 0.983. AGAATCGGTC was tested, and the switch fluorescence ratio was 0.978. For AGAATCTAGC, the switch fluorescence ratio was 0.975. Sequence AGAATGAATG has a switch fluorescence ratio of 0.973. For AGAATGGTCA, the switch fluorescence ratio was 1.03. Sequence AGAATGTGGA has a switch fluorescence ratio of 0.923. AGAATGTGTG was tested, and the switch fluorescence ratio was 0.988. Work on AGAATTGTTA yielded a switch fluorescence ratio of 1.03. AGAATTTCCC gave a switch fluorescence ratio of 1.04. In the case of AGAATTTGAG, the switch fluorescence ratio is reported as 0.99. AGACAATGAG gave a switch fluorescence ratio of 1.03. AGACACGTTC showed a switch fluorescence ratio of 0.964. AGACAGCCAG showed a switch fluorescence ratio of 0.988. In the case of AGACATCGA, the switch fluorescence ratio is reported as 0.98. With AGACATTGTA the switch fluorescence ratio was 0.999. Work on AGACCCACAT yielded a switch fluorescence ratio of 1.28. AGACCGGAAA was tested, and the switch fluorescence ratio was 1.04. AGACGAGAGG showed a switch fluorescence ratio of 1.02. AGACGCGTCG showed a switch fluorescence ratio of 1.01. Work on AGACGCTTGA yielded a switch fluorescence ratio of 1.02. AGACGGACCC was tested, and the switch fluorescence ratio was 1.39. Work on AGACGGGGCG yielded a switch fluorescence ratio of 1.06. For AGACGGTTGT, the switch fluorescence ratio was 1.04. With AGACGTGGGA the switch fluorescence ratio was 0.961. For AGACGTTAGG, the switch fluorescence ratio was 0.985. In the case of AGACTATACA, the switch fluorescence ratio is reported as 1.3. Sequence AGACTGTTTG has a switch fluorescence ratio of 1.01. In the case of AGACTTCGA, the switch fluorescence ratio is reported as 1.06. In the case of AGACTTTAT, the switch fluorescence ratio is reported as 0.995. Sequence AGACTTTCGC has a switch fluorescence ratio of 1.04. With AGAGAAAGCT the switch fluorescence ratio was 1.01. Sequence AGAGAAGAAA has a switch fluorescence ratio of 0.947.
